Values joined by “and” are separate entries in the source; they are usually repeats but may differ in a detail not shown here. Equal entries are not always repeated. About 40 (0.2%) of roughly 16,000 compounds were called active. Inconclusive results (about 1%) are left out. Calls follow the shape of the dose curve; as a rule, active = well fitted activation curve with a large enough effect; inconclusive = small, poorly fitted or top-dose-only effect, or another doubt; inactive = no such curve, though single readings can be large or run the other way. The list shows a part of the results.

The text below walks through data of PubChem BioAssay AID1645887 (National Center for Advancing Translational Sciences (NCATS), 2021).
% is scaled to controls: 0 for no effect and ±100 for the full control effect.

In this experiment the target is Rap guanine nucleotide exchange factor 4 (Homo sapiens) (UniProt Q8WZA2). Nature of the experiment: Validation qHTS for agonist of cAMP-regulated guanine nucleotide exchange factor 4 (EPAC2).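 Also: exchange makes BODIPY-GDP fluorescence drop when released from Rap1B; series mostly up to about 150 µM.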 The following applies: EPAC2 Rap1B BODIPY-GDP exchange, fluorescence; activation: stronger effect = higher value. The procedure, abridged: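 Fluorescent exchange assay: 100 nM EPAC2 with 250 nM RAP1B-BODIPY-GDP and 50 uM GDP; compound added, 5 min at room temperature, then read (ex 480/em 540 nm) every 5 min for 30 min. Normalized to 6.5 mM cAMP agonist control.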
Sequence of UniProt Q8WZA2 (Q8WZA2 whole entry, looked up): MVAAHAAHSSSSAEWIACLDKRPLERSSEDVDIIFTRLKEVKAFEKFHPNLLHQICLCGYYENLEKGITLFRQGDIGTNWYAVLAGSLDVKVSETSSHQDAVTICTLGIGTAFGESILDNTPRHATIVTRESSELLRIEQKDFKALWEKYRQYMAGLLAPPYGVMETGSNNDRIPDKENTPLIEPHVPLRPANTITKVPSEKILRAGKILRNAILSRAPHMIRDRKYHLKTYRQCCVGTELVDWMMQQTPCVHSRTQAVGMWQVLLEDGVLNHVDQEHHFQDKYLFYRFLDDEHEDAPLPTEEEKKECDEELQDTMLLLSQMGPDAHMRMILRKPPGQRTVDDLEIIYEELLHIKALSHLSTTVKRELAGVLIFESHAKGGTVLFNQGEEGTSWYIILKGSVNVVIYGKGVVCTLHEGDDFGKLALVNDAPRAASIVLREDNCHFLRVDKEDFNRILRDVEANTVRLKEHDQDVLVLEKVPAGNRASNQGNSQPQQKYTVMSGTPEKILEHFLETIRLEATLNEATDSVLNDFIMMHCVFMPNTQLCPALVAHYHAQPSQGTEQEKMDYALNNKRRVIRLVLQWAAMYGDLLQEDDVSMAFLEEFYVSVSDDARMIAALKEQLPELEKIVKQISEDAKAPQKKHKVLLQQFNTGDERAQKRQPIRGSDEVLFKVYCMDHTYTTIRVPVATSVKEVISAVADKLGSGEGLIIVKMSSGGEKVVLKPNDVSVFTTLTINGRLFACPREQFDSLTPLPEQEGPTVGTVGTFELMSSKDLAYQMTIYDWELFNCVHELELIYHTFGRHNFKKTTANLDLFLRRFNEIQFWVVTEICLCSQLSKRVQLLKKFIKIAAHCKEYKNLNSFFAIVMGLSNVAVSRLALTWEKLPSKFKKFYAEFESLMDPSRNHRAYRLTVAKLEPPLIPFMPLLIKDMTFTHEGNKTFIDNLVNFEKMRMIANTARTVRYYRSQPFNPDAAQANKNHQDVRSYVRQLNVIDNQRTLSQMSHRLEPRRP
On the technique in general: Quantitative high-throughput screening tests each substance at several concentrations.
Consider `COc1ccc(CCN(C)C(=O)c2cnn(-c3nccc(-c4ccc(C)o4)n3)c2C)cc1OC`, for which the activation is inactive: -10.3%.

Take `O=C([C@@H]1CC=C[C@@H]2CCN(C3CCCCC3)C(=O)[C@@H]21)N1CCOCC1`: the activation was inactive: -3.61%.

Turning to `COCCCOc1cc(C[C@@H](C[C@H](N)[C@@H](O)C[C@H](C(=O)NCC(C)(C)C(N)=O)C(C)C)C(C)C)ccc1OC`, the activation is inactive: -8.81%.

As for `CN(CC(=O)N1CCOCC1)Cc1c(Cl)cccc1NC(=O)c1ccccc1`, the activation is inactive: -3.61%.

`CNCCCCOc1ccccc1Cc1ccccc1`: the activation was inactive: -11.2%.

Turning to `C#C[C@]1(OC(C)=O)CC[C@H]2[C@@H]3CCC4=CC(=O)CC[C@@H]4[C@H]3CC[C@@]21C`, the activation was inactive: -8.44%.

With `CCCCOC(=O)c1ccc(O)cc1`, the activation is inactive: 0.993%.

Consider `COc1ccccc1CNc1cc(-c2cccc(NS(C)(=O)=O)c2)ncn1`, for which the activation was inactive: -7.69%.

Take `CCCc1nc2c(C)cc(-c3nc4ccccc4n3C)cc2n1Cc1ccc(-c2ccccc2C(=O)O)cc1`: the activation was inactive: -13.9%.

`CCC(O)c1ccccc1` (stereo not given): the activation was inactive: -12.4%.

For `COCC(=O)Nc1cc(C(=O)N2CCc3c(Cl)cccc3C2)c2c(c1)nc(-c1ccncc1)n2C`, the activation was inactive: 2.57%.

In the case of `O=C(O)Cc1ccc(O)c(O)c1`, the activation is inactive: -5.82% and inactive: -2.99%.

Consider `COc1ccccc1CN1CC[C@@]2(CCCN(C(=O)c3cc(C(F)(F)F)cc(C(F)(F)F)c3)C2)C1`, for which the activation is inactive: -24.1%.

For `CN(C)CCOc1ccccc1Cc1ccccc1`, the activation was inactive: -23.2%.

Consider `CN(C)c1ccc(-c2ccc3ncnc(N(C)Cc4ccco4)c3c2)cc1`, for which the activation was inactive: 5.99%.

In the case of `O=C(c1ccncc1)N1CCC2(CCCN(c3cccc(-c4ccccc4)c3)C2)CC1`, the activation was inactive: -1%.

Take `COc1ccc(-c2cc(=O)c3c(O)c(OC)c(OC)c(OC)c3o2)cc1OC`: the activation was inactive: -14.3%.

In the case of `Cc1[nH]c2ccccc2c1/C=C/c1cnc2ccccc2n1`, the activation was inactive: -17.3%.

For the compound `COC(=O)N1CCC[C@@]2(CCN(C(=O)Nc3ccc(OC)cc3)C2)C1`, the activation is inactive: -14.4%.

As to `N=C(N)N1CCc2ccccc2C1`, the activation is inactive: -1.38%.

On to `CCn1c(-c2ccccc2F)nc2cc(NC(C)=O)cc(C(=O)N3CCCC3c3nccs3)c21` (stereo not given), for which the activation was inactive: -8.5%.

With `CC(NC(=O)c1cccnc1)c1nnc2n1CCN(Cc1ccc(F)cc1F)CC2` (stereo not given), the activation is inactive: -3.49%.

With `CC(C)c1c(C(=O)N(C)Cc2cccc3ncccc23)cnn1-c1nccc(-c2ccccc2F)n1`, the activation is inactive: 3.52%.

As to `CC1=CC(=O)c2ccccc2C1=O`, the activation is inactive: -29.9%.

For `CC1(C)S[C@@H]2[C@H](NC(=O)COc3ccccc3)C(=O)N2C1C(=O)OCC1CCCCC1` (stereo not given in full), the activation was inactive: -32.4%.

Regarding `CN(C)c1ccc2ccc3cccc4ccc1c2c34`, the activation was inactive: -31.6%.

As for `CC(=O)N[C@H]1[C@H]([C@H](O)[C@H](O)CO)OC(C(=O)O)=C[C@@H]1N=C(N)N`, the activation was inactive: -8.94%.

For the compound `CCOc1ccc(N=Nc2ccc(N)cc2N)cc1`, the activation was inactive: 4.1%.

For the compound `COc1ccccc1CCn1c(=O)c(-c2cccc(F)c2)nc2cncnc21`, the activation is inactive: -7.73%.

Turning to `O=C1CC[C@@]23/C=C/C(=O)NCCCCNCCCNC(=O)/C=C/c4ccc(c2c4)OC3C1` (stereo not given in full), the activation was inactive: 15.3%.

In the case of `CC[N+](CC)(CCNC(=O)C(=O)NCC[N+](CC)(CC)Cc1ccccc1Cl)Cc1ccccc1Cl`, the activation is inactive: -4.67% and inactive: 0.0845%.

As to `O=c1c(CCc2ccccc2)nc2cnc(N3CCOCC3)nc2n1Cc1ccc(F)cc1`, the activation is inactive: -9.78%.

As for `CN(C)c1ncc2nc(-c3cccs3)c(=O)n(C)c2n1`, the activation was inactive: 12.8%.

Regarding `N=c1ccn2c(n1)OC1C(O)C(CO)OC12` (stereo not given), the activation was inactive: -16.8% and inactive: -9.4%.

On to `CCN1CCCC1CNC(=O)c1cnn(-c2nccc(-c3cc4ccccc4o3)n2)c1C` (stereo not given), for which the activation was inactive: -3.13%.

Take `O=C(c1cc(C(F)(F)F)cc(C(F)(F)F)c1)N1CCC2(CC1)CN(Cc1ccccc1)C2`: the activation was inactive: -21.1%.

For the compound `O=C(OCc1ccccc1)c1cccnc1`, the activation is inactive: -14.4%.

With `CC(=O)Oc1cc(C)c(OC(C)=O)c2ccccc12`, the activation is inactive: -9.46%.

As for `COc1ccc(-c2nc3cnc(N4CCN(C)CC4)nc3n(CCc3ccccc3)c2=O)cc1`, the activation was inactive: -2.85%.

Consider `Cc1nc2cnc(Oc3ccccc3)nc2n(C)c1=O`, for which the activation is inactive: 4.42%.

Turning to `N=C(N)SCCN`, the activation is inactive: -9.86% and inactive: -8.89% and inactive: -23.9%.

Turning to `O=c1c(-c2cccs2)nc2cnc(N3CCOCC3)nc2n1CCc1ccccc1`, the activation was inactive: 9.41%.

For `Nc1ncnc2c1c(I)cn2C1OC(CO)C(O)C1O` (stereo not given), the activation was inactive: -12.9% and inactive: 5.47% and inactive: 1.53%.

As for `Cc1cc(-c2cc(F)cc3c2OC(CNC(=O)[C@@H]2CCC(=O)N2)C3)ccc1F` (stereo not given in full), the activation was inactive: -4.66%.

In the case of `O=C(O)/C=C/C=C/c1ccccc1`, the activation is inactive: -0.131%.

In the case of `O=C(c1ccc(N2CCC(NCCCn3ncc4ccccc43)CC2)cc1)N1CCOCC1`, the activation is inactive: -9.12%.

In the case of `CCCCCCCCCC[n+]1ccc(/C=C/c2c(C)[nH]c3ccccc23)c2ccccc21`, the activation is inactive: 0.288%.

As to `NC(C(=O)NC1C(=O)N2C(C(=O)O)=C(Cl)CSC12)c1ccccc1` (stereo not given), the activation was inactive: 17%.

As for `O=C(CO)[C@@H](O)[C@H](O)[C@@H](O)CO`, the activation was inactive: -10.5%.

As for `COC(=O)CC1C(=O)NCCN1C(=O)CN1Cc2ccccc2OC(c2ccccc2)C1` (stereo not given), the activation is inactive: -8.45%.

As to `N[C@](CC1c2ccccc2Oc2ccccc21)(C(=O)O)[C@@H]1C[C@@H]1C(=O)O`, the activation was inactive: -21.4%.

Consider `Cc1ccc(C(=O)C(C)CN2CCCCC2)cc1` (stereo not given), for which the activation was inactive: -14% and inactive: -6.5%.

Turning to `CNCC[C@@H](Oc1ccccc1C)c1ccccc1`, the activation is inactive: 2.9% and inactive: -15.6%.

With `c1ccc(CN2CCC3(CCCc4ccccc43)CC2)cc1`, the activation was inactive: -43.4%.

`CN(C)c1ccc(N2[C@@H](CC(=O)O)c3cc(C(F)(F)F)ccc3S2(=O)=O)cc1`: the activation is inactive: -26.7%.
